Test results taken from the supplement of paper PMC11417369.
± gives the standard deviation of the averaged measurements. This is one part of the list.

test system: PfAP2-LT AP2 domain (GST-tagged); experiment: gcPBM binding intensity (ln(normalized median fluorescence intensity)); higher = stronger DNA binding
Method in brief: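 An Agilent 4 × 180k array of primer-extended double-stranded 36-bp intergenic genomic probes, with negative controls, was incubated for 1 h with GST-tagged P. falciparum DNA-binding domains expressed in E. coli. Alexa488 anti-GST antibody detected bound protein, scanned at 488 nm. Binding intensity is the highest Masliner-normalised natural-log median intensity across replicate spots of either probe orientation.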

Sequence | gcPBM binding intensity (ln)
AAGTTAGTATTCTGCTGTACTTCTATATATAAGTGT [XGTACX_site7678] | 8.87 ± 0.4
ATAAAATAATCTTATGCACACCAAAAATTTATATAA [CACACA_site8332] | 8.79 ± 0.41
ATATATCAAAAATGATGACATAAATATATTAATTTA [TGCATGCA_negctrl_site259] | 8.56 ± 0.47
TTTTTGTAAAATAAACGTACAAAACAATTGTTCATT [XGTACX_site6537] | 8.51 ± 0.45
TATCTGTATGTATGTACACACAAAAAATGGAATATA [CACACA_site5947] | 9.2 ± 0.45
TATTTTAAAACAAAAATATAATTTCATAAAAATATA [CACACA_negctrl_site394] | 8.06 ± 0.45
TAATATATATATTTATGTACATATAAATTTTCTCCT [XGTACX_site4496] | 8.65 ± 0.41
AAAAAAAAAAAAAGCACACATATAAATATGAATAAA [CACACA_site1393] | 8.79 ± 0.59
AAAAAAAAAAAAAACACACACATACACCCAAAAATG [CACACA_site4223] | 9.66 ± 0.24
ATATACACACAAAAACGTACACATATATATATGTAT [XGTACX_site2673] | 9.48 ± 0.44
GGTATAATAATATATAGTACACACAAAAATGGAAGT [XGTACX_site7058] | 9.3 ± 0.35
ACAATAAAGAAGTGTACACATATATCAATAAAAAAA [CACACA_site5228] | 8.96 ± 0.59
AAAATAATATTTAATACACACATAATTTTAATATAA [CACACA_site4588] | 8.67 ± 0.42
AAAAAAAAAAAAAAAAAAAAAAAAATATATAATTTA [CACACA_negctrl_site583] | 8.45 ± 0.14
CAATCATGGGTTTACACACACATGCATGTGAAAATT [CACACA_site1349] | 9.36 ± 0.36
ATTTTTGCAGTAATTAAATAGACAAAATGAAAAAAA [CACACA_negctrl_site1537] | 8.59 ± 0.49
GATGATAATAAATTTATATATAATATTATCTTATGT [GTGCAC_negctrl_site672] | 8.58 ± 0.45
CATATTAAAAATTATTGTACATATTAATGAATATAA [XGTACX_site2734] | 8.4 ± 0.49
AACCAAACAAATAAACGTACAAACATTACATATATT [XGTACX_site2265] | 9.04 ± 0.49
TATTTATAAACATACGCACACATTAAAATATATATA [CACACA_site6051] | 9.02 ± 0.4
ATATATATATATATAGTGCATAAAATAAGTTTCTAA | 9.05 ± 0.42
TAATAATAAAAATAAACACACATATATCTGTATTTA [CACACA_site5572] | 8.78 ± 0.38

Sequence | gcPBM binding intensity (ln)
GGTGGAAACAATTACACACACACAAAAAAAAAAAAA [CACACA_site3208] | 9.46 ± 0.51
AATCACAACAGACACACACACAAAAAAAAAAAAAAA [CACACA_site1442] | 9.35 ± 0.42
ATATGTTATATAAATATATATATATATATATATATA [TGCATGCA_negctrl_site594] | 9.205 ± 0.078
TTAATATAATAGAAGTGTACACACATATTTATGTGT [XGTACX_site6672] | 9.6 ± 0.4
TAAAGAAAAAGAGAATGTACATGAGAAAAGTATACT [XGTACX_site7472] | 8.99 ± 0.36
AGAAAAAAAAAAAAATGTACAGACTTTTTCTTATAA [XGTACX_site6481] | 8.36 ± 0.58
AAAAAAGATAATTATGCACACACACCCACCCACCCA [CACACA_site8825] | 10.085 ± 0.0071
ACACAAAAAAATATATATATATATATATATATGTTA [CACACA_negctrl_site55] | 9.38 ± 0.4
TTTTTATAAATACACATAAATATATATATATATATA [TGCATGCA_negctrl_site393] | 8.94 ± 0.21
AAAAAAAAAAAAAAATGTACATTTTGAAAGGATATA [XGTACX_site8217] | 8.54 ± 0.65
ATGCATTATTAGAATACACACCATACGCATATTTAT [CACACA_site4319] | 9.08 ± 0.38
TATGATTTTAACAACTGTACAATATAATAAATCTAA [XGTACX_site2198] | 8.47 ± 0.38
TGGGTCTCTAACTGGTGTACTATTTACATATTATAC [XGTACX_site8593] | 9.03 ± 0.46
ATATATTTTTAATTACGTACTTAATAATATATACAA [XGTACX_site3285] | 8.55 ± 0.4
TAAAAGAAAAATTAGTGTACCAATATTAACATAAAA [XGTACX_site5474] | 8.64 ± 0.47
TCTCATAGGAAACACACACACACACCCACATATATA [CACACA_site1738] | 10.1 ± 0.11
ATATATTTTTTAAATTTAAAAATTATAAAATTTATA [TGCATGCA_negctrl_site36] | 8.13 ± 0.33
TAAATAAAAAAAAAAAGTACATACATACAAACATAT [XGTACX_site4427] | 8.94 ± 0.49
ATATATGTGCGCGTATGTACATAAAATAAATATACA [XGTACX_site2689] | 9.46 ± 0.52
TAATTCTAAATAAATGTACACACAAAAATAAATGTA [CACACA_site8509] | 8.92 ± 0.34
TATATATATATTATATGTACATAAATATTTATACTC [XGTACX_site114] | 8.78 ± 0.4
TTGATAAAATGGGAGAAATTAAAAAGGAAAAAAAAA [CACACA_negctrl_site1279] | 8.39 ± 0.54

Sequence | gcPBM binding intensity (ln)
CTATTTTATATGTGCACACATATACACCCACAAATA [CACACA_site1131] | 9.33 ± 0.2
TTATAAAATTTTCTTCTATATTTTAATTATTCTCAT [TGCATGCA_negctrl_site571] | 8.45 ± 0.67
ATTAAAAGAACCAAGTGTACATTCTATATATAAAAA [XGTACX_site4260] | 8.71 ± 0.51
TATACAATATATTTTGGTACACAAACAAAAAAATAT [XGTACX_site2522] | 8.89 ± 0.52
GAAAAAGACAAAAGGTGTACAATATGAAATATATAT [XGTACX_site373] | 9.16 ± 0.46
ATATTATGATCTATTTTTATATTCTATTTGATAAAT [CACACA_negctrl_site1070] | 8.58 ± 0.45
GTTCACCAAAGGTAACGTACACAAACATATATATAT [XGTACX_site1073] | 9.03 ± 0.38
AAAATAATAATTAAATAATAGTAAATGAAAAATAAA [CACACA_negctrl_site57] | 8.71 ± 0.56
ATAAATACTAGGCACACACACATATAGATTTATATA [CACACA_site7064] | 9.77 ± 0.47
ACTTCATTTTATAAGTGTACATAATTTGTTTATATA [XGTACX_site5453] | 8.84 ± 0.42
TATGTGTTCAGTATTGCACACACACTCCAAAATAAA [CACACA_site8018] | 9.5 ± 0.18
GTTGTCCCCCTTTCTATGCACACTTTAAATTATTCA [CACACA_site52] | 9.23 ± 0.28
AATTTATAAGAATATTGTACGTTTAATATATTGTAA [XGTACX_site7553] | 8.52 ± 0.35
ATTCTAATAGATAGTAGTACCTATAAGTTTTCTTTT [XGTACX_site2315] | 8.57 ± 0.47
AAACGATCTCGATGTTGTACACATTTATATAGAAAC [XGTACX_site4373] | 8.95 ± 0.46
TACTAAAATATATATATGCAACATGAGATATTCAAC [XGTACX_negctrl_site283] | 8.85 ± 0.38
CTAAACTAAACAAACTGTACACAAATAAAACAATAA [XGTACX_site8880] | 8.95 ± 0.47
CATGTGTGTATAATTTGTACATATACATAATAAATA [XGTACX_site2418] | 9.2 ± 0.3
ATATCAACTGAATTGTATAGGCGATAAAAGAAAAAA [CACACA_negctrl_site1334] | 8.74 ± 0.5
TTTATACATACATTCGTGCACATACGTATAACATAT | 9.07 ± 0.37
AGAATTATAAATTATAGTACATAAAATTTTGATGTA [XGTACX_site5726] | 8.54 ± 0.36
ATATAAATATATGTATGTACACATTTTTTTTTTTTT [XGTACX_site247] | 8.71 ± 0.4

Sequence | gcPBM binding intensity (ln)
TTTATAACATTTAAGAGTACAAAAAAATAAATAAAT [XGTACX_site1264] | 8.57 ± 0.44
TAAAAGATAAAATATGCATGTGTAATTTTTTTTTTT [TGCATGCA_site955] | 8.58 ± 0.42
GAAATATAATTTATTACACACATTTTAAAAAAATTC [CACACA_site1087] | 8.58 ± 0.31
TTCAACGTTTTGGAATGTACAGAAAGGTATCCATCA [XGTACX_site179] | 8.62 ± 0.42
AAAAAAAAAAAAAAAAAAAAAAAAAAAAAATATGTG [GTGCAC_negctrl_site657] | 8.91 ± 0.27
ATGAACTAAACTAATCGTACAATAAGTTTTATTATA [XGTACX_site4891] | 8.66 ± 0.56
AAAAAAATATATAAATGTACATATTGTTTAATTAAT [XGTACX_site3794] | 8.7 ± 0.45
TCACACACTCTCAAAAGTACAAGAAGATTATGAAGA [XGTACX_site4748] | 9.11 ± 0.45
ATCTATCATATTTATGCACACAAAAATAATTAATTC [CACACA_site8837] | 8.94 ± 0.42
TATTATTTACTTATTGCACACATATAAAATATATTT [CACACA_site9017] | 9.04 ± 0.4
ATATGCACTCATTGTGCACACGCATATTACGAAAAG [CACACA_site2637] | 9.18 ± 0.3
AATTTACAAAAAAGAAAAAAAAAAAAAAAGATACTT [CACACA_negctrl_site1434] | 8.45 ± 0.58
TTTTTTTTTTTTTTTTTTTTTTTTTTATGATATATA [GTGCAC_negctrl_site365] | 8.24 ± 0.4
ATATTATAATGTTTTTACGAATTCGCAAATTATTAT [GTGCAC_negctrl_site470] | 8.75 ± 0.4
TTAATTATCCATTTTGCACACATTTTAAAACATGAA [CACACA_site189] | 9.02 ± 0.39
AGATTGTATTTATGTACACACATTTTTGGAATATGA [CACACA_site1340] | 8.96 ± 0.35
TTAAATATAATTATATGTACATATTTATGTATATAT [XGTACX_site5811] | 8.75 ± 0.37
TTGATTAAAATTAGTACACACAAAATACATGCGGGG [CACACA_site5284] | 9.43
TATATATTAAAATAATCACACACATCAATTAATGGT [CACACA_site8331] | 9.09 ± 0.42
AAAAAATTATTAATTTGTACATAAATAACCAAAAAA [XGTACX_site2488] | 8.49 ± 0.52
TTTTTTAAATGTATTAAAATTATATATATATATATA [GTGCAC_negctrl_site570] | 8.63 ± 0.16
